Measurements published in the supplement of paper PMC11417369.
± gives the standard deviation of the averaged measurements. This is one part of the list.

system: PfAP2-EXP AP2 domain (GST-tagged); test: gcPBM binding intensity (ln(normalized median fluorescence intensity)); higher = stronger DNA binding
Procedure, shortened: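 GST-tagged P. falciparum DNA-binding domains, expressed in E. coli (about 25 μg on average), were applied for 1 h to an Agilent 4 × 180k array of primer-extended double-stranded 36-bp intergenic genomic probes plus negative controls. The binding buffer was 1× PBS with 1% milk, 0.2 mg/ml BSA, 0.5% salmon testes DNA and 0.03% Triton X-100. Bound protein was detected with Alexa488 anti-GST antibody and scanned at 488 nm. Binding intensity is the highest Masliner-normalised natural-log median intensity across replicate spots of either probe orientation.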

Sequence | gcPBM binding intensity (ln)
GTATGTATGTATGTATGTACTTATGTAGTCTTAGTT [XGTACX_site1710] | 9.24 ± 0.21
TATTCAGGTCCAATGGTGCAATATATTTTTGTAATA [GTGCAC_site9607] | 8.93 ± 0.092
TAAAAAATAAAATGGACACACACGTTCAAATTTAGA [CACACA_site2083] | 8.46 ± 0.42
AAGTTTATCACAGCCACGCACACATAATATATGTAT [CACACA_site3670] | 8.66 ± 0.63
ATATATATATATAAAAGTACATGCTTATATATATAT [XGTACX_site3786] | 9.86 ± 0.3
TTTAAAAATGCTACATGTACAAAATAAAATATAATA [XGTACX_site2905] | 8.88 ± 0.48
TACAAAATATATATGACACACATAAAAAAAAGTATA [CACACA_site1373] | 8.69 ± 0.4
ATTTTTTTTATTCAATGTACTTTTTTTTATATATAT [XGTACX_site4978] | 8.77 ± 0.45
TATATAAACATACATACACACATACAATAAGTAAAA [CACACA_site5118] | 8.94 ± 0.79
CACCCACTAATAAACACACACATATATATATATATA [CACACA_site389] | 10.2 ± 0.35
AATAAAATGAGATGTTGTACAGTTTTGATATATGCA [XGTACX_site3052] | 8.73 ± 0.35
ACCTAAGAACTATTTACACACATATACAAAATATAT [CACACA_site2459] | 8.59 ± 0.47
ATTGTTCTATGATTTGTACACACTTTTTTTTAAAAT [CACACA_site2825] | 9.35 ± 0.74
AATAAAAAACTACAATATACAAAATTATTAAATCAA [GTGCAC_negctrl_site703] | 8.4 ± 0.39
CATATAAAAATATGCACACACAGGAATACAAACATA [CACACA_site684] | 8.97 ± 0.28
AAACGTACATAATACACACACATGTATCCATATAAA [CACACA_site5173] | 8.76 ± 0.41
ATTTATAATCAGGGTTGTACACTTATAGAATTTTTA [XGTACX_site4175] | 8.33 ± 0.42
ATATAAATATATGGAAGTACACAAAAAAATTAAAAA [XGTACX_site8624] | 8.83 ± 0.35
AATCTTCATACCAACACATGCACAAAAGAAATAAAA [TGCATGCA_site563] | 9.32 ± 0.35

Sequence | gcPBM binding intensity (ln)
CATAAGAAAATAAAAACATGCACATAAGAAATATAC [TGCATGCA_site842] | 9.39 ± 0.23
TATATTTATACATATTGTACATTTTATACTTTTACA [XGTACX_site3884] | 8.65 ± 0.4
ATTATTAAAAAGATGTAAATAAATGAATATATGCTT [CACACA_negctrl_site539] | 8.47 ± 0.39
ATATAGTATAATAAAAGTACATTTTGATTTTTTCTC [XGTACX_site1797] | 8.28 ± 0.32
TTCTATATATTTTAATGTACATATATGATTATTCTT [XGTACX_site8294] | 8.72 ± 0.33
TATTAAGAATTTACATGTACTTGTTAAATAAGAAAA [XGTACX_site4466] | 8.8 ± 0.29
TAAATAATATCTATCACACACGCATATATACATATA [CACACA_site2622] | 8.32 ± 0.44
GTCGCATTTTATACAAGTACACATGAATTATACAAC [XGTACX_site2200] | 9.035 ± 0.021
TTCAAAAAAATGTATACACACATAAGTATAATATAA [CACACA_site3758] | 8.53 ± 0.49
TGTTTATGTATCAATTGTACAAAAAAAAAAAAAAAA [XGTACX_site1590] | 8.26 ± 0.46
GATTTTTTTTTTTTTTCACACACTAATAATATTATC [CACACA_site464] | 8.62 ± 0.37
CTTATGTGCATACCTACACACTTACAGATATATATA [CACACA_site5622] | 8.59 ± 0.33
TTCAAATATTTTATTTGTACATAAAAAAGAAAGTTA [XGTACX_site8287] | 8.35 ± 0.2
TAGGAAGAATTACTGTGTACTAAAATATTAAAAAGT [XGTACX_site4909] | 8.79 ± 0.22
ATAAATGAAAAAAAGCGTACATATAAAAAAATATAT [XGTACX_site5063] | 8.63 ± 0.49
TGTAAATAATATAATAGTACGCATATTTTTATTGAA [XGTACX_site284] | 8.46 ± 0.35
ACTTACCCATTTATTACACACATAAAGGAAAATTTT [CACACA_site4873] | 8.89 ± 0.43
TTATTATCCTATATTTCTTTTCCTTCTTCAAAATTA [CACACA_negctrl_site1314] | 8.64 ± 0.35
TACTATCTATACAATACACACAAAAAAAAAAAAATA [CACACA_site3981] | 8.34 ± 0.52

Sequence | gcPBM binding intensity (ln)
TAAATACACTGTAGCGCACACGGCCAAAAAAAAAAA [CACACA_site1818] | 8.79 ± 0.3
TAATATCATTTATATTGTACTATAACAAAATCTATA [XGTACX_site7700] | 8.28 ± 0.38
TATGTCAATTTTCATACATGCGCATAATCTTTATTT [TGCATGCA_site807] | 8.94 ± 0.25
ATAAATAAGATACGTACACACATATACAAAATATAC [CACACA_site3661] | 8.85 ± 0.24
TATAAAACCCTACTGTTTCTTCTTTATTGATATATT [TGCATGCA_negctrl_site285] | 8.63 ± 0.5
GAAAGAATAAAATAAACATGCAAATAAAACATAAAA [TGCATGCA_site471] | 9.27 ± 0.25
AAAGTTTTTATACATACACACCTATAAATTAAGTGC [CACACA_site7198] | 8.24 ± 0.34
AATTGTAAATTGGGCACTTATAAAAATGAACAAATA [CACACA_negctrl_site1583] | 8.72 ± 0.41
TCATAAAGAACAAAGTGTACCTATATATTACATACA [XGTACX_site7595] | 8.36 ± 0.37
AGGTAGTTCTGTATCACACACATATATATATATATA [CACACA_site2214] | 10.3 ± 0.47
ACTCTTAAAATGTATTGTACATAATTTTTACAAGGG [XGTACX_site6611] | 8.75 ± 0.47
TTTTTTTTTTTTACCTGTACATGTCAGCAAACTTTT [XGTACX_site1171] | 8.84 ± 0.61
CAAAAACGGAAGTGGTGTACCGATATTATATAAACA [XGTACX_site4962] | 8.89 ± 0.45
GGAGAATAGTGGAAAACACACACGTTTGAGATATGG [CACACA_site1168] | 8.78 ± 0.52
AACATTATAAGACACACACACACATATATATATATA [CACACA_site8259] | 10.1 ± 0.39
TTGTGTGTATGTATACATATATATATTGAGACGAAT [TGCATGCA_negctrl_site382] | 8.94 ± 0.49
TTTCCATTATGATATAGTACATAAATATATGTAATA [XGTACX_site6992] | 8.24 ± 0.16
ACATATAATAAAAAATGTACACACATAAGAAAATTT [XGTACX_site6153] | 8.57 ± 0.071
